Measured values published in ChEMBL document CHEMBL1961873, “Compounds: GSK PKIS; Assays: Nanosyn kinase panel” (2012).
For some of these results: Most of the strong results are listed elsewhere, so they are rarer here than in the full data. The list shows a part of the results, in another mix than the full data.

The molecules below were run on Proto-oncogene tyrosine-protein kinase receptor Ret (Homo sapiens), P07949 [Y791F]. Conditions: at 1 µM.

Compound	inhibition
Cc1cccc(Oc2nccc(-c3c(-c4ccc(F)cc4)ncn3C3CCNCC3)n2)c1C	8.15%
Fc1ccc(-c2ncn(C3CCNCC3)c2-c2ccnc(Oc3cccc(F)c3)n2)cc1	10%
O=C(O)c1ccc(Oc2nccc(-c3c(-c4ccc(F)cc4)ncn3C3CCNCC3)n2)cc1	3.57%
Fc1ccc(-c2ncn(C3CCNCC3)c2-c2ccnc(Oc3cccc(C(F)(F)F)c3)n2)cc1	13.1%
CC(C)(C)c1ccc(Oc2nccc(-c3c(-c4ccc(F)cc4)ncn3C3CCNCC3)n2)cc1	10.9%
COc1ccccc1Oc1nccc(-c2c(-c3ccc(F)cc3)ncn2C2CCNCC2)n1	9.77%
O=C1NC(=O)C(c2cccc([N+](=O)[O-])c2)=C1Nc1cc(Cl)c(O)c(Cl)c1	2.45%
Fc1ccc(Oc2nccc(-c3c(-c4ccc(F)cc4)ncn3C3CCNCC3)n2)cc1	3.97%
O=C1NC(=O)C(c2ccccc2)=C1Nc1ccccc1	21.6%
COc1ccccc1C1=C(Nc2ccccc2)C(=O)NC1=O	14.2%
Fc1ccc(-c2ncn(C3CCNCC3)c2-c2ccnc(Oc3ccc(Cl)cc3)n2)cc1	2.31%
CS(=O)(=O)c1ccc(Oc2nccc(-c3c(-c4ccc(F)cc4)ncn3C3CCNCC3)n2)cc1	6.69%
O=C1NC(=O)C(c2ccccc2Cl)=C1Nc1cc(Cl)c(O)c(Cl)c1	14.8%
NC(=O)CCc1ccccc1Oc1nccc(-c2c(-c3ccc(F)cc3)ncn2C2CCNCC2)n1	-0.45%

The molecules below were run against Macrophage-stimulating protein receptor (Homo sapiens) (UniProt Q04912). Conditions: at 0.1 µM.
Sequence of UniProt Q04912 (Q04912 whole entry): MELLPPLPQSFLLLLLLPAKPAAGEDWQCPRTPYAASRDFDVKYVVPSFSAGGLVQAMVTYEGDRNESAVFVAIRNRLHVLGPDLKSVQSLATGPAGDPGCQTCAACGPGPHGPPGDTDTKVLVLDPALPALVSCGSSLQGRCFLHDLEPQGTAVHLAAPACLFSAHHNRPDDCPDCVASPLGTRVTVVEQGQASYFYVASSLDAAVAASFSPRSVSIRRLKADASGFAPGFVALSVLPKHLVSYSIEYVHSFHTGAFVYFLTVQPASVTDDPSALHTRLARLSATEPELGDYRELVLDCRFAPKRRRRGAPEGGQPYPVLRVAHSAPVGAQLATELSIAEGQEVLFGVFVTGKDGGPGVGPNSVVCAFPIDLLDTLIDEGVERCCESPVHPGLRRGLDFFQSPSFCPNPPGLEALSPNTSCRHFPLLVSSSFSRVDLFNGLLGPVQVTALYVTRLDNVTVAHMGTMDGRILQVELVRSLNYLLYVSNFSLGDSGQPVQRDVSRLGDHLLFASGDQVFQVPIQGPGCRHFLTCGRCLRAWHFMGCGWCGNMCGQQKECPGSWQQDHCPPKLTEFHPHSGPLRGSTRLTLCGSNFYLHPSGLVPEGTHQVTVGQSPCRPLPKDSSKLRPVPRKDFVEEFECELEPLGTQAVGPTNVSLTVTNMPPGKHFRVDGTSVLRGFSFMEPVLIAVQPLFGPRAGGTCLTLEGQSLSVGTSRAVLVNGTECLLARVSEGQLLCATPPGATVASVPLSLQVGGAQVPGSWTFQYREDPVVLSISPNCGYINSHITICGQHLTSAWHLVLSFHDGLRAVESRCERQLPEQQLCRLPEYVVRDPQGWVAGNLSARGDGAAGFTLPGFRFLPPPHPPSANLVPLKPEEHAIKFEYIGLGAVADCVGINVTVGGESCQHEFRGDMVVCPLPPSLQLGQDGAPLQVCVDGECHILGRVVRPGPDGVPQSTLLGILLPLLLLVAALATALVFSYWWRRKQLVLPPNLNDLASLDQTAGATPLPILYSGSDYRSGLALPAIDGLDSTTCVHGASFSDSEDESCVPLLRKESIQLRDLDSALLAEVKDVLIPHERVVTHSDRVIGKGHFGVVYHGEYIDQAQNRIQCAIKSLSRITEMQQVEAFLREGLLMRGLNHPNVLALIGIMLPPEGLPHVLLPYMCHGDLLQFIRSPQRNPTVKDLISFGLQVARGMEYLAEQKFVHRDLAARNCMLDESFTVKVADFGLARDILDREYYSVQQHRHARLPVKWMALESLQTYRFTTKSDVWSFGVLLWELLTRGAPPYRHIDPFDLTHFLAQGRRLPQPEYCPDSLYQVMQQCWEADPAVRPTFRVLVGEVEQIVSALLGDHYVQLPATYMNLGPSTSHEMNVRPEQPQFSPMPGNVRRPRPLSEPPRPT

Compound	inhibition
Cc1cccc(Oc2nccc(-c3c(-c4ccc(F)cc4)ncn3C3CCNCC3)n2)c1C	2.84%
Fc1ccc(-c2ncn(C3CCNCC3)c2-c2ccnc(Oc3cccc(F)c3)n2)cc1	4.71%
O=C(O)c1ccc(Oc2nccc(-c3c(-c4ccc(F)cc4)ncn3C3CCNCC3)n2)cc1	8.05%
Fc1ccc(-c2ncn(C3CCNCC3)c2-c2ccnc(Oc3cccc(C(F)(F)F)c3)n2)cc1	0.55%
CC(C)(C)c1ccc(Oc2nccc(-c3c(-c4ccc(F)cc4)ncn3C3CCNCC3)n2)cc1	12.3%
COc1ccccc1Oc1nccc(-c2c(-c3ccc(F)cc3)ncn2C2CCNCC2)n1	8.47%
O=C1NC(=O)C(c2cccc([N+](=O)[O-])c2)=C1Nc1cc(Cl)c(O)c(Cl)c1	-0.68%
Fc1ccc(Oc2nccc(-c3c(-c4ccc(F)cc4)ncn3C3CCNCC3)n2)cc1	8.43%
O=C1NC(=O)C(c2ccccc2)=C1Nc1ccccc1	-3.29%
COc1ccccc1C1=C(Nc2ccccc2)C(=O)NC1=O	-1.52%
CS(=O)(=O)c1ccc(Oc2nccc(-c3c(-c4ccc(F)cc4)ncn3C3CCNCC3)n2)cc1	1.51%
O=C1NC(=O)C(c2ccccc2Cl)=C1Nc1cc(Cl)c(O)c(Cl)c1	0.51%
NC(=O)CCc1ccccc1Oc1nccc(-c2c(-c3ccc(F)cc3)ncn2C2CCNCC2)n1	-4.13%

Each molecule was assayed against Macrophage-stimulating protein receptor (Homo sapiens) (UniProt Q04912). Conditions: at 1 µM.

Compound	inhibition
Cc1cccc(Oc2nccc(-c3c(-c4ccc(F)cc4)ncn3C3CCNCC3)n2)c1C	4.58%
Fc1ccc(-c2ncn(C3CCNCC3)c2-c2ccnc(Oc3cccc(F)c3)n2)cc1	6.11%
O=C(O)c1ccc(Oc2nccc(-c3c(-c4ccc(F)cc4)ncn3C3CCNCC3)n2)cc1	3.75%
Fc1ccc(-c2ncn(C3CCNCC3)c2-c2ccnc(Oc3cccc(C(F)(F)F)c3)n2)cc1	3.73%
CC(C)(C)c1ccc(Oc2nccc(-c3c(-c4ccc(F)cc4)ncn3C3CCNCC3)n2)cc1	4.77%
COc1ccccc1Oc1nccc(-c2c(-c3ccc(F)cc3)ncn2C2CCNCC2)n1	7.36%
O=C1NC(=O)C(c2cccc([N+](=O)[O-])c2)=C1Nc1cc(Cl)c(O)c(Cl)c1	0.58%
Fc1ccc(Oc2nccc(-c3c(-c4ccc(F)cc4)ncn3C3CCNCC3)n2)cc1	7.68%
O=C1NC(=O)C(c2ccccc2)=C1Nc1ccccc1	1.37%
COc1ccccc1C1=C(Nc2ccccc2)C(=O)NC1=O	7.21%
Fc1ccc(-c2ncn(C3CCNCC3)c2-c2ccnc(Oc3ccc(Cl)cc3)n2)cc1	0.73%
CS(=O)(=O)c1ccc(Oc2nccc(-c3c(-c4ccc(F)cc4)ncn3C3CCNCC3)n2)cc1	-1.81%
O=C1NC(=O)C(c2ccccc2Cl)=C1Nc1cc(Cl)c(O)c(Cl)c1	3.62%
NC(=O)CCc1ccccc1Oc1nccc(-c2c(-c3ccc(F)cc3)ncn2C2CCNCC2)n1	-1.88%

The molecules below were run against Proto-oncogene tyrosine-protein kinase ROS (Homo sapiens) (UniProt P08922). Conditions: at 0.1 µM.
Sequence of UniProt P08922 (P08922 whole entry): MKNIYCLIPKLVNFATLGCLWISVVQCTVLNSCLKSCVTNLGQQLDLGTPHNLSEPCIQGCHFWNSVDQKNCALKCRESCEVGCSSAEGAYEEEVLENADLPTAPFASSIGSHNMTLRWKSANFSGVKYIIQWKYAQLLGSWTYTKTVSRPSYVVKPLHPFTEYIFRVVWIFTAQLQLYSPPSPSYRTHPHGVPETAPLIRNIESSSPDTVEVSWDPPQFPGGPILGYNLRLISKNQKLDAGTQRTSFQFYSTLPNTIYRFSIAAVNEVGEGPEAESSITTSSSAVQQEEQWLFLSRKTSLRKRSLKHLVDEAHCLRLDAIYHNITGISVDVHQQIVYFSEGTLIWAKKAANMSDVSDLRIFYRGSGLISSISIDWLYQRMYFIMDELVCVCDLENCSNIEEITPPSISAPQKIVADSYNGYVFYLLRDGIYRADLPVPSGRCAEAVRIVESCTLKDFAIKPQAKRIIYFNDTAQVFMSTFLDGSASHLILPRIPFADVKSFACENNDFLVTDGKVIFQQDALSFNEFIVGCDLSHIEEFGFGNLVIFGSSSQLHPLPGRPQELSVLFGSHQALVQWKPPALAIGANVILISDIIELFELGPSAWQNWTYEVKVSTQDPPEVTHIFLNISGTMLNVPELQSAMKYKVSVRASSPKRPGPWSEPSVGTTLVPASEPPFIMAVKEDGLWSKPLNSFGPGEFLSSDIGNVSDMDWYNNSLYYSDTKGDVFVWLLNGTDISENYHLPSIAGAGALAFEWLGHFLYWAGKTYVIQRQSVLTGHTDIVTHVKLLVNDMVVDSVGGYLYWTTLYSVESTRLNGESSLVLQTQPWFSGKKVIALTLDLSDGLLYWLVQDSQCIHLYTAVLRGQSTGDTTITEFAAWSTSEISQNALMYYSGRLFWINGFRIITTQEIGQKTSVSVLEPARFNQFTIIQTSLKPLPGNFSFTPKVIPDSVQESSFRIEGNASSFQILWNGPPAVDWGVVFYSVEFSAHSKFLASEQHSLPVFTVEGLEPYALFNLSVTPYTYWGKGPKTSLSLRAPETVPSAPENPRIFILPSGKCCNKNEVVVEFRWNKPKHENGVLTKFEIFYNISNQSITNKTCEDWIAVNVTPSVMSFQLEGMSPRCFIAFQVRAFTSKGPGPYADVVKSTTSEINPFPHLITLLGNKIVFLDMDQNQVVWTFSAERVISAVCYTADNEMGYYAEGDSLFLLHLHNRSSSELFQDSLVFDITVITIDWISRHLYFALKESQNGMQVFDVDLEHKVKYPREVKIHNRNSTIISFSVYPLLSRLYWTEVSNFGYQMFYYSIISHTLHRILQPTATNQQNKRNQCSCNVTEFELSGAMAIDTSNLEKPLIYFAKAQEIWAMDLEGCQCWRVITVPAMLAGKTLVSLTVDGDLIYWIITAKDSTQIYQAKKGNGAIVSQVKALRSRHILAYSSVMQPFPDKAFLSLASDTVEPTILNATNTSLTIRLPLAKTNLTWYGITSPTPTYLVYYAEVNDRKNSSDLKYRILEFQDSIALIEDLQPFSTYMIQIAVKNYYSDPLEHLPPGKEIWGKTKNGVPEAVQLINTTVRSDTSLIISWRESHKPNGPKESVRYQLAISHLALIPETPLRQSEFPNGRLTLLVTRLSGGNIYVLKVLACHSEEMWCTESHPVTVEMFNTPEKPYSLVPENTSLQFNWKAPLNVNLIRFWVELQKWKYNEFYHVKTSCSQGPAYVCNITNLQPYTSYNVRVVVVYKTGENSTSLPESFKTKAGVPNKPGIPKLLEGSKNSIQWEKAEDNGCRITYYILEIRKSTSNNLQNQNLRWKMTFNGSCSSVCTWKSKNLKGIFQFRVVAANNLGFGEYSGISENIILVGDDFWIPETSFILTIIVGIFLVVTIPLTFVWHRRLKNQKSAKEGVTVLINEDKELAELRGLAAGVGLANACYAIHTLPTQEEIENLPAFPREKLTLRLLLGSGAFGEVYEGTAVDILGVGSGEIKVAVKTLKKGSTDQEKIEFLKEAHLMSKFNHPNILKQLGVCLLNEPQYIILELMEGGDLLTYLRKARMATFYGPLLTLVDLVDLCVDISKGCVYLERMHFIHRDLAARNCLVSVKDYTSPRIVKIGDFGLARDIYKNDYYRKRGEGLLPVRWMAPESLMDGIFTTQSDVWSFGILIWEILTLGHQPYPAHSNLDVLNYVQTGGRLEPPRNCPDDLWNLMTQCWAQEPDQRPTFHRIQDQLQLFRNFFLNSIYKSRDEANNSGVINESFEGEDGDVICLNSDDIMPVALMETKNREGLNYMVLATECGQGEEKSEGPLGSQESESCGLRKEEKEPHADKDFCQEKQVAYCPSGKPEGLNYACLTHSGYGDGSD

Compound	inhibition
Cc1cccc(Oc2nccc(-c3c(-c4ccc(F)cc4)ncn3C3CCNCC3)n2)c1C	3.37%
Fc1ccc(-c2ncn(C3CCNCC3)c2-c2ccnc(Oc3cccc(F)c3)n2)cc1	8.29%
O=C(O)c1ccc(Oc2nccc(-c3c(-c4ccc(F)cc4)ncn3C3CCNCC3)n2)cc1	8.51%
Fc1ccc(-c2ncn(C3CCNCC3)c2-c2ccnc(Oc3cccc(C(F)(F)F)c3)n2)cc1	5.11%
CC(C)(C)c1ccc(Oc2nccc(-c3c(-c4ccc(F)cc4)ncn3C3CCNCC3)n2)cc1	2.92%
COc1ccccc1Oc1nccc(-c2c(-c3ccc(F)cc3)ncn2C2CCNCC2)n1	4.8%
O=C1NC(=O)C(c2cccc([N+](=O)[O-])c2)=C1Nc1cc(Cl)c(O)c(Cl)c1	1.82%
Fc1ccc(Oc2nccc(-c3c(-c4ccc(F)cc4)ncn3C3CCNCC3)n2)cc1	10.5%
O=C1NC(=O)C(c2ccccc2)=C1Nc1ccccc1	4.6%
COc1ccccc1C1=C(Nc2ccccc2)C(=O)NC1=O	3.34%
Fc1ccc(-c2ncn(C3CCNCC3)c2-c2ccnc(Oc3ccc(Cl)cc3)n2)cc1	2.81%
CS(=O)(=O)c1ccc(Oc2nccc(-c3c(-c4ccc(F)cc4)ncn3C3CCNCC3)n2)cc1	2.28%
O=C1NC(=O)C(c2ccccc2Cl)=C1Nc1cc(Cl)c(O)c(Cl)c1	1.97%
NC(=O)CCc1ccccc1Oc1nccc(-c2c(-c3ccc(F)cc3)ncn2C2CCNCC2)n1	2.96%
